In all, about 310,000 compounds went through this assay and about 14,000 (4.5%) showed an effect of 50% or more. The effect is printed as a negative number. The list shows a part of the results.
What follows are compounds tested against human ether-à-go-go-related gene (hERG) potassium channel (human, UniProt Q12809) (assay: primary screen, population patch clamp on CHO cells stably expressing hERG).
Sequence of human ether-à-go-go-related gene (hERG) potassium channel (Q12809 whole entry, looked up): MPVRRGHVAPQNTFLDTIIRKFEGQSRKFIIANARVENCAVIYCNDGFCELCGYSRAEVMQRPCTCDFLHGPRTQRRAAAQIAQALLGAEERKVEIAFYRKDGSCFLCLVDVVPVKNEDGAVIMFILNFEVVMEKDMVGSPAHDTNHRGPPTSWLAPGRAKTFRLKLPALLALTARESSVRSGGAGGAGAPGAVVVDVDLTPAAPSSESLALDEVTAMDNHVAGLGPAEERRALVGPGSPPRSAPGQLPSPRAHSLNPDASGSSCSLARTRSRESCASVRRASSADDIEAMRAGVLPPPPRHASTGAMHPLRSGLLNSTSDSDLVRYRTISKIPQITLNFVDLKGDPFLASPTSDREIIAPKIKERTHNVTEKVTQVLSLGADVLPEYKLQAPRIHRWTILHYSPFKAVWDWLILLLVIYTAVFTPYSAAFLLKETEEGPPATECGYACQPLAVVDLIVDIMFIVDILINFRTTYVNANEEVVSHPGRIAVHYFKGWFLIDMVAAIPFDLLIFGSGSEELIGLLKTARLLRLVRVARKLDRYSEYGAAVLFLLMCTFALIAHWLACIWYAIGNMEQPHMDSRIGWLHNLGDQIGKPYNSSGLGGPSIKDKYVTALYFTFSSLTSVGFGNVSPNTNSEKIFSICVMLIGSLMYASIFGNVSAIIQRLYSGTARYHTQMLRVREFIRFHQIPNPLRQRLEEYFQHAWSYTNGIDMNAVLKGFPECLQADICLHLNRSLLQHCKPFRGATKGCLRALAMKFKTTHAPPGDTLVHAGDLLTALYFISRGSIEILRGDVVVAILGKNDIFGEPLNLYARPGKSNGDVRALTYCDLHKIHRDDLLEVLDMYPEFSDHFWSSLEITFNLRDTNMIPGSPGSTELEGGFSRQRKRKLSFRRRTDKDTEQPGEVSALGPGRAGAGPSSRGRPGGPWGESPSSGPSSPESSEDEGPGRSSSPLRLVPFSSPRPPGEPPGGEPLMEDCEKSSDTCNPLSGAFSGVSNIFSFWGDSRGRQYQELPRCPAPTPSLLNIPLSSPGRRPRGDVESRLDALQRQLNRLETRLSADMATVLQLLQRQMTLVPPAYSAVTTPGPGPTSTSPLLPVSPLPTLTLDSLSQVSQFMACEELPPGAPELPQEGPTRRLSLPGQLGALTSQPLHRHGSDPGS
Protocol: Briefly, Chinese hamster ovary (CHO) cells stably expressing the hERG channel were dislodged from tissue culture flasks and dispensed into PPC plates. […] During the recording, background leak currents were estimated by a 100 ms step to -80 mV from an initial holding potential of -70 mV and subtracted from the subsequent current measurement. The campaign was conducted in two phases using slight differences in recording protocol. In the first phase, the initial voltage pulse used a 100 ms step to -30 mV from a holding potential of -70 mV, a 2 s conditioning step to +25 mV, and a 2 s test step to -30 mV. During the second phase of the screen, the potential during the conditioning step was raised to +45 mV. In both phases of the campaign, a secondary voltage pulse was applied using the same parameters as the second phase initial pulse. The initial and secondary pulses were applied in the absence of compound, and upon application of 1 μM and 10 μM test concentrations. […]
For CCOC(=O)c1sc2nc(Cc3ccc(Cl)cc3)[nH]c(=S)c2c1C, the “hERG current change (%, negative = inhibition) at 10uM” value was 17.4%.
For CN(C)/C=C/C(=O)c1cccc(Cl)c1, the “hERG current change (%, negative = inhibition) at 10uM” value was 0.271%.
For COc1ccc(Cl)cc1NC(=O)C/C(C)=N/NC(=O)C(=O)NCc1ccccc1, the “hERG current change (%, negative = inhibition) at 10uM” value was 6.82%.
For Cc1ccc(SC(C)C(=O)NCc2cccnc2)cc1 (stereo not shown), the “hERG current change (%, negative = inhibition) at 10uM” value was 5.44%.
For Nc1ccc(C(=O)N2CCN(S(=O)(=O)c3ccc4c(c3)OCCO4)CC2)cc1[N+](=O)[O-], the “hERG current change (%, negative = inhibition) at 10uM” value was -17.3%.
In the case of CN(CC(=O)Nc1ccc(Cl)c(C(F)(F)F)c1)C(=O)c1cn2ccccc2n1, the “hERG current change (%, negative = inhibition) at 10uM” value is reported as -61.9%.
For NNC(=O)C1=NOC(CNc2ncc(C(F)(F)F)cc2Cl)C1 (stereo not shown), the “hERG current change (%, negative = inhibition) at 10uM” value was -4.21%.
In the case of COc1ccc(CC(=O)NCc2nnc(SCc3ccc([N+](=O)[O-])cc3)n2C)cc1, the “hERG current change (%, negative = inhibition) at 10uM” value is reported as -63.6%.
Nc1ncn(-c2ncc(C(F)(F)F)cc2Cl)n1 was tested, and the “hERG current change (%, negative = inhibition) at 10uM” value was 11.6%.
With O=C(CN1C(=O)S/C(=C\c2ccc(Cl)cc2)C1=O)NC1C=CS(=O)(=O)C1 (stereo not shown) the “hERG current change (%, negative = inhibition) at 10uM” value was 8.1%.
With COc1cc(/C=C(\C#N)c2ccccn2)cc(OC)c1O the “hERG current change (%, negative = inhibition) at 10uM” value was 21%.
O=[N+]([O-])c1cccc(/C=N/n2c(-c3cccnc3)n[nH]c2=S)c1 was tested, and the “hERG current change (%, negative = inhibition) at 10uM” value was 9.54%.
For O=C(c1ccc2c3n(nc2c1)-c1ccccc1CO3)N1CCCCC1, the “hERG current change (%, negative = inhibition) at 10uM” value was -4.84%.
For C=CCNC(=O)C1CC(=O)N(c2ccc(OCC(=O)Nc3ccc(CC)cc3)cc2)C1 (stereo not shown), the “hERG current change (%, negative = inhibition) at 10uM” value was 14.6%.
In the case of CCN(CC)c1ccc(NC(=O)c2nc3nc(C)cc(C(F)F)n3n2)cc1, the “hERG current change (%, negative = inhibition) at 10uM” value is reported as -37%.
In the case of CC(O)Cc1nsc(NC(=O)c2cccs2)n1 (stereo not shown), the “hERG current change (%, negative = inhibition) at 10uM” value is reported as 10.1%.
For CC(NS(=O)(=O)c1ccc(F)cc1)C(=O)NCc1ccncc1 (stereo not shown), the “hERG current change (%, negative = inhibition) at 10uM” value was 0.651%.
With COc1ccc(NC(=O)c2cc(Br)ccc2Cl)c([N+](=O)[O-])c1 the “hERG current change (%, negative = inhibition) at 10uM” value was 9.83%.
With S=C(NCc1ccccc1)NNc1nc2ccccc2[nH]1 the “hERG current change (%, negative = inhibition) at 10uM” value was 11.3%.
In the case of Cc1ccnc(NS(=O)(=O)c2cc(-c3cc(C)no3)ccc2C(C)C)c1, the “hERG current change (%, negative = inhibition) at 10uM” value is reported as 4.62%.
Cc1cc(C(=O)COC(=O)Cn2cnc3c2c(=O)n(C)c(=O)n3C)c(C)n1C was tested, and the “hERG current change (%, negative = inhibition) at 10uM” value was 11.8%.
For COC(=O)c1cc(-c2ccc3c(c2)OCO3)nc2ccccc12, the “hERG current change (%, negative = inhibition) at 10uM” value was 13.1%.
In the case of CC(C)CNC(=S)NC1CC2CCC(C1)N2Cc1ccccc1 (stereo not shown), the “hERG current change (%, negative = inhibition) at 10uM” value is reported as -35.6%.
CCC(C)[C@H](NC(=O)[C@@H]1Cc2c([nH]c3ccccc23)C2c3ccccc3C(=O)N21)C(=O)N1CCC[C@@H]1C(=O)O (stereo partly shown) was tested, and the “hERG current change (%, negative = inhibition) at 10uM” value was 0.753%.
O=C(Cc1cc(=O)oc2cc(O)ccc12)NCC1CCC(C(=O)O)CC1 (stereo not shown) was tested, and the “hERG current change (%, negative = inhibition) at 10uM” value was 5.64%.
With CCOCCCNC(=O)C1(O)c2ccccc2NC(=O)N1c1ccc(C)c(C)c1 (stereo not shown) the “hERG current change (%, negative = inhibition) at 10uM” value was 16.6%.
In the case of CCCS(=O)(=O)N1CCCC(C(=O)c2ccccc2OC)C1 (stereo not shown), the “hERG current change (%, negative = inhibition) at 10uM” value is reported as -2.75%.
CCCN1CCN(C(=O)CCNC(=O)Cn2cnc3ccccc3c2=O)CC1 was tested, and the “hERG current change (%, negative = inhibition) at 10uM” value was 15%.
In the case of O=C(Cn1c(=O)oc2ccc(Cl)cc21)Nc1ccon1, the “hERG current change (%, negative = inhibition) at 10uM” value is reported as 17.4%.
For O=[N+]([O-])c1cc(Cl)ccc1NCCc1ccccn1, the “hERG current change (%, negative = inhibition) at 10uM” value was -16.8%.
Cc1noc(C)c1C(c1ccccc1)S(=O)(=O)c1ccccc1 (stereo not shown) was tested, and the “hERG current change (%, negative = inhibition) at 10uM” value was -0.632%.
Cc1cc(/C=C2\SC(=Nc3ccc(N4CCOCC4)cc3)N(C)C2=O)c(C)n1-c1cccnc1 was tested, and the “hERG current change (%, negative = inhibition) at 10uM” value was 11.3%.
In the case of CCCCn1c(N)c(N(CC(C)C)C(=O)c2ccc(S(=O)(=O)N3CCCCCC3)cc2)c(=O)[nH]c1=O, the “hERG current change (%, negative = inhibition) at 10uM” value is reported as 9.58%.
Cc1ccc(NC(=S)NCc2cccs2)cc1 was tested, and the “hERG current change (%, negative = inhibition) at 10uM” value was -3.09%.
COC(=O)c1cc(=O)n(Cc2ccc3c(c2)OCO3)c(=Nc2ccccc2)s1 was tested, and the “hERG current change (%, negative = inhibition) at 10uM” value was 10.4%.
In the case of CC1CCN(C(=O)c2ccc(NS(=O)(=O)c3ccc4[nH]c(=O)[nH]c4c3)cc2)CC1, the “hERG current change (%, negative = inhibition) at 10uM” value is reported as 5.52%.
COc1ccc(-c2cc(C)no2)cc1S(=O)(=O)N1CCCN(Cc2ccccc2Cl)C1 was tested, and the “hERG current change (%, negative = inhibition) at 10uM” value was -3.69%.
For COc1ccccc1CNC(=O)c1ccc(CS(=O)Cc2cccc(Cl)c2)o1 (stereo not shown), the “hERG current change (%, negative = inhibition) at 10uM” value was -17.1%.
O=c1[nH]c(C2CCN(S(=O)(=O)Cc3ccccc3)CC2)nc2c1nnn2Cc1ccccc1 was tested, and the “hERG current change (%, negative = inhibition) at 10uM” value was -11.3%.
With C/C(=N\NC(=S)NCc1ccccc1)c1ccc(C#N)cc1 the “hERG current change (%, negative = inhibition) at 10uM” value was 19.9%.
For Cc1nc(CNS(=O)(=O)c2ccc3ccccc3c2)cs1, the “hERG current change (%, negative = inhibition) at 10uM” value was -0.157%.
In the case of CCN(C(=O)COC(=O)c1ccco1)c1c(N)n(Cc2ccccc2)c(=O)[nH]c1=O, the “hERG current change (%, negative = inhibition) at 10uM” value is reported as -0.805%.
With CC(C)CC(=O)c1c[nH]c(C(=O)NCc2cccs2)c1 the “hERG current change (%, negative = inhibition) at 10uM” value was -4.66%.
For O=C(CCCOc1ccc(Cl)cc1)N1CCOCC1, the “hERG current change (%, negative = inhibition) at 10uM” value was -5.67%.
For CCC(C)c1ccc(NS(=O)(=O)c2c(C)[nH]c(=O)[nH]c2=O)cc1 (stereo not shown), the “hERG current change (%, negative = inhibition) at 10uM” value was -0.529%.
With C=CCn1c(=O)c(C(=O)NCc2ccc3c(c2)OCO3)c(O)c2cc(OC)c(OC)cc21 the “hERG current change (%, negative = inhibition) at 10uM” value was 10.3%.
CC1(C)CC(=O)C2=C(C1)OC1=C(C(=O)CC(C)(C)C1)C2c1ccc(O)cc1O was tested, and the “hERG current change (%, negative = inhibition) at 10uM” value was -10.9%.
For CC(=O)c1ccc(S(=O)(=O)N(C)CC(=O)NCC2CCCCC2)cc1, the “hERG current change (%, negative = inhibition) at 10uM” value was -6.21%.
O=C(OCC(=O)N1CCCc2ccccc21)c1cc(S(=O)(=O)N2CCOCC2)ccc1O was tested, and the “hERG current change (%, negative = inhibition) at 10uM” value was -40.3%.
Cc1ccc(C(=O)NNC2=NC(C)(C)Cc3ccccc32)cc1.Cl was tested, and the “hERG current change (%, negative = inhibition) at 10uM” value was -4.09%.
In the case of OC1C[N+]2(CCCCC2)C1.[Cl-], the “hERG current change (%, negative = inhibition) at 10uM” value is reported as 2.27%.
With CN(c1cccc(NC(=O)c2ccccc2N(C)S(=O)(=O)c2ccccc2)c1)S(C)(=O)=O the “hERG current change (%, negative = inhibition) at 10uM” value was 12.9%.
For O=C(COC(=O)c1cccc(O)c1)NC(=O)Cc1ccccc1, the “hERG current change (%, negative = inhibition) at 10uM” value was 3.25%.
COc1ccccc1NS(=O)(=O)c1ccc(S(=O)(=O)N2CCOCC2)cc1 was tested, and the “hERG current change (%, negative = inhibition) at 10uM” value was -10.8%.
With OC(CNCCc1ccccc1)COc1ccc(OCC(O)CNCCc2ccccc2)cc1 (stereo not shown) the “hERG current change (%, negative = inhibition) at 10uM” value was 1.24%.

From paper PMC4336329 (PLoS ONE, 2015)
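Note: peak tail current of the secondary pulse compared with the same well before compound.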
